Reference: US7256286B2, “Bryostatin analogues, synthetic methods and uses” (The Board of Trustees of the Leland Stanford Junior …, priority 1999, dated 2007)

Test system: NCI-H322M
Test: cells
Text: Another useful method for assessing anticancer activities of compounds of the invention involves the multiple-human cancer cell line screening assays run by the National Cancer Institute (e.g., Boyd, 1989). This screening panel, which involves approximately 60 different human cancer cell lines, is a useful indicator of in vivo antitumor activity for a broad variety of tumor types (Grever et al., 1992, Monks et al., 1991), such as leukemia, non-small cell lung, colon, central nervous system (CNS), melanoma, ovarian, renal, prostate, and breast cancers. Antitumor activities can be expressed in terms of ED50 (or GI50), where ED50 is the molar concentration of compound effective to reduce cell growth by 50%. Compounds with lower ED50 values tend to have greater anticancer activities than compounds with higher ED50 values. Example 7 describes a P388 murine lymphocytic leukemia cell assay which measures the ability of compounds of the invention to inhibit cellular growth.
Anticancer data were obtained in vitro for C26 desmethyl bryostatin analogue 702.1 (Example 3A) tested against a spectrum of different NCI human cancer cell-lines associated with various cancer conditions. Data obtained with Bryostatin-1 are included for comparison. Growth inhibition (GI50) values are expressed as the log of molar concentration at half-maximum inhibition.

Structure (SMILES) | Growth inhibition (GI50) (NCI-H322M, NSC Lung) | Difference (GI50 desmethyl vs Bryo-1) | GI50 (Homo sapiens, NCI-H322M, read-out: Growth inhibition (GI50) (converted))
CCC/C=C/C=C/C(=O)O[C@H]1/C(=C/C(=O)OC)C[C@H]2C[C@H]([C@@H](C)O)OC(=O)C[C@H](O)C[C@@H]3C[C@H](OC(C)=O)C(C)(C)[C@](O)(C[C@@H]4C/C(=C/C(=O)OC)C[C@H](/C=C/C(C)(C)[C@]1(O)O2)O4)O3 [Bryo-1, reference compound] | −6.00 log of molar concentration |  | 
CCCCCCCC(=O)O[C@H]1/C(=C/C(=O)OC)C[C@H]2C[C@H](CO)OC(=O)C[C@H](O)C[C@@H]3CCCC(CC4CCO[C@H](/C=C/C(C)(C)[C@]1(O)O2)O4)O3 [Formula IIa (702.1)] |  | 1.62 | 41.7 µM
